# Results from PubChem BioAssay (EPA / NIEHS).
# “And” between values parts separate entries of the source, which are not always exact repeats. Equal entries are not always repeated. Inconclusive results, whose numbers are uncertain, are shown with a selection of clear calls. For some assays here: A potency beside an inconclusive call is a rough fit, not a confirmed value. More than one record can exist for a structure, and the calls need not agree. The source made the active and inactive calls. The calls were made as follows: active = hit-call score of the fitted dose curve at least 0.9, where 1 is the maximum; inconclusive = response in the unintended direction; inactive = score below 0.9.
# What was measured:
# [1] = biological target: Estrogen receptor beta (Homo sapiens) (UniProt Q92731); assay: ATG_hERb_XSP2: Attagene TRANS-FACTORIAL Multi-Species (XSP2) HepG2 Assay for human Estrogen Receptor (ERb) (AID 2283813);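 also: actives raise reporter mRNA above DMSO so AC50 reflects agonist induction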
# Sequence of UniProt Q92731 (Q92731 whole entry, looked up, the tested form may be a part): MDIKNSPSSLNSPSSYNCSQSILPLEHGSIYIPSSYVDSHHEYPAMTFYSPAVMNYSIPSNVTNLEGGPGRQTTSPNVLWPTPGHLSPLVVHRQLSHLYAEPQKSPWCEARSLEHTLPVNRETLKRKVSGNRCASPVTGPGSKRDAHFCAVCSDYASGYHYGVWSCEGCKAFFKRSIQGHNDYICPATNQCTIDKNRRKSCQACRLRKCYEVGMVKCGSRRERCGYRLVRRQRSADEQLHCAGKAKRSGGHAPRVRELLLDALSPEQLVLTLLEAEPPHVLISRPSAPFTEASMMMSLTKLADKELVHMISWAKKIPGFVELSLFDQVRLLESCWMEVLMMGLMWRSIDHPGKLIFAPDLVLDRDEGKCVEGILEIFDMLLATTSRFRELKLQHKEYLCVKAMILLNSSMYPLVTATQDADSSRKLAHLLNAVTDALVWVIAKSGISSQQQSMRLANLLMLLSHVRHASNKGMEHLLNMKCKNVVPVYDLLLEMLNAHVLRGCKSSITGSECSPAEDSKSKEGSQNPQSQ
# Method in brief: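 Transient TRANS reporter system in HepG2: after 24 h of chemical, RNA is reverse-transcribed, reporter cDNA amplified, FAM-labelled and sized by capillary electrophoresis. Induction of the human ERb-Gal4 reporter is measured relative to DMSO.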
# [2] = biological target: GAL4 Transcription Factor (Internal Marker), GAL4 (gene 855828) (UniProt P04386); assay: ATG_GAL4_XSP2: Attagene TRANS-FACTORIAL Multi-Species (XSP2) HepG2 Assay for GAL4 Transcription Factor (Internal Marker) (AID 2283814);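 also: GAL4 reporter mRNA background control in MRTU transfected cells not a receptor target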
# Sequence of UniProt P04386 (P04386 whole entry, looked up, the tested form may be a part): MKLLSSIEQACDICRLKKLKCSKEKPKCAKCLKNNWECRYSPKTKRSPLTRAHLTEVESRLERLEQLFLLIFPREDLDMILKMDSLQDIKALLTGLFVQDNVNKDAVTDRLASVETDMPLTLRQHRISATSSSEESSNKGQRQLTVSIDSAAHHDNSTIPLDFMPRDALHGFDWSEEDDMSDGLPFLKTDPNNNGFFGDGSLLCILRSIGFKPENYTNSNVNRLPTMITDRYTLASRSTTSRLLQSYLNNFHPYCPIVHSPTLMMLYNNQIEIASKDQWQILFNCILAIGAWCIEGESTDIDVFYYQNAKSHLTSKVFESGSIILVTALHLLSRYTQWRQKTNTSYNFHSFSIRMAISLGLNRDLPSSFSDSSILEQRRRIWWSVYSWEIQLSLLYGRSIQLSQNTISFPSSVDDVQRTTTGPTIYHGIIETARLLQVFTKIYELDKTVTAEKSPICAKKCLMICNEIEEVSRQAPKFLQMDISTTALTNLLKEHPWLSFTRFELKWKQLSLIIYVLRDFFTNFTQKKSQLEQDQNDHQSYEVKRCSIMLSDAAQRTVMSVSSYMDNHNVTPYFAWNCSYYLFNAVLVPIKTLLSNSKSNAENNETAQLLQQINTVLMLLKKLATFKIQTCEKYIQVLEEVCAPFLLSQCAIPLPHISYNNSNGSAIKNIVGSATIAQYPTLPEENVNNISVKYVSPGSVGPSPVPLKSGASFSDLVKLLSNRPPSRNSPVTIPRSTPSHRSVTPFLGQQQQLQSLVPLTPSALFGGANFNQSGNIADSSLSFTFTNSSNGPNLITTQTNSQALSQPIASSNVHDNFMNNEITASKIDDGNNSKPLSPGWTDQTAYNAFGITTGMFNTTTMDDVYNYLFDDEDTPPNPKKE
# Method in brief: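 Background-control readout: gain-of-signal fitted against DMSO. After 24 h exposure of transfected HepG2 (MRTU, GAL4-UAS reporters; 3 nM 6-alpha-fluorotestosterone, 1.5 nM norgestrel present), transcripts quantified by RT-PCR and capillary electrophoresis fluorescence.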
# [3] = system: turtle Androgen Receptor (AR), gene 101947425; assay: ATG_trAR_XSP2: Attagene TRANS-FACTORIAL Multi-Species (XSP2) HepG2 Assay for turtle Androgen Receptor (AR) (AID 2283815);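 as to AC50: potency for gain of reporter signal meaning activation above DMSO baseline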
# Method in brief: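 Reporter transcripts were quantified via RT-PCR and capillary electrophoresis and fitted upward against DMSO. Transiently transfected human HepG2 cells carrying NR-Gal4 chimeras were exposed 24 h, with 3 nM 6-alpha-fluorotestosterone plus 1.5 nM norgestrel added.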
# [4] = ATG_M_06_XSP2: Attagene TRANS-FACTORIAL Multi-Species (XSP2) HepG2 Assay for M06 Transcription Factor (Internal Marker) (AID 2283811);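 also: hits are increases in signal above the DMSO baseline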
# Method in brief: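 Cells of the human liver line HepG2 carried transfected reporter transcription units and were treated for 24 h. Induced reporter transcripts were detected by fluorescence after RT-PCR and capillary electrophoresis, with activity fitted in the gain direction against DMSO.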
# [5] = biological target: zebrafish Estrogen Receptor (ER1), esr1 (gene 259252) (UniProt P57717); assay: ATG_zfER1_XSP2: Attagene TRANS-FACTORIAL Multi-Species (XSP2) HepG2 Assay for zebrafish Estrogen Receptor (ER1) (AID 2283816)
# Sequence of UniProt P57717 (P57717 whole entry, looked up, the tested form may be a part): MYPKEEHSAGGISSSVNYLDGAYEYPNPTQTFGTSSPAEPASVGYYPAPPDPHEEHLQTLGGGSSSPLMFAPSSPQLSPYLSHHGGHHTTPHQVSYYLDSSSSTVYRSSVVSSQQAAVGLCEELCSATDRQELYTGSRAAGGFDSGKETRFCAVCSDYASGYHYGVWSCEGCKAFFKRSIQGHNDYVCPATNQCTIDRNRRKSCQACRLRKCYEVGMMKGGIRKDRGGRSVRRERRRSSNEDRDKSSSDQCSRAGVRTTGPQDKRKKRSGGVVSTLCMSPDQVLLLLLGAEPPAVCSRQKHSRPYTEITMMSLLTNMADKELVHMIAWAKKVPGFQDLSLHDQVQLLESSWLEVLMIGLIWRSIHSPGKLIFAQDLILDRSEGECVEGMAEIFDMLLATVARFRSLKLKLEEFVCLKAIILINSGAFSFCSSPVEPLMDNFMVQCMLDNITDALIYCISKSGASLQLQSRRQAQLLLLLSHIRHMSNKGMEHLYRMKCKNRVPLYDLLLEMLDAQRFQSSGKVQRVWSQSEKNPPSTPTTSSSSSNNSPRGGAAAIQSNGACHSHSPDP
# Method in brief: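 After 24 h compound exposure, RNA from transfected HepG2 cells was reverse-transcribed and reporter transcripts resolved by capillary electrophoresis. The TRANS format reads exogenous zebrafish ER1-Gal4 chimera activity on GAL4-UAS elements; gain of signal against DMSO.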
# [6] = ATG_M_06_XSP1: Attagene TRANS-FACTORIAL Multi-Species (XSP1) HepG2 Assay for M06 Transcription Factor (Internal Marker) (AID 2283790)
# Method in brief: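 This background-control readout tracks M06 reporter mRNA, measured by RT-PCR and capillary electrophoresis. HepG2 cells transiently carrying the GAL4-UAS reporter panel were dosed for 24 h with 3 nM 6-alpha-fluorotestosterone added for partial AR stimulation; increases were scored relative to DMSO.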
# [7] = ATG_M_61_XSP1: Attagene TRANS-FACTORIAL Multi-Species (XSP1) HepG2 Assay for M61 Transcription Factor (Internal Marker) (AID 2283797)
# Method in brief: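 Background-control readout: reporter transcripts measured by RT-PCR and capillary electrophoresis 24 h after dosing transiently transfected HepG2 multi-reporter cells, with 3 nM 6-alpha-fluorotestosterone present. Fitted in the positive direction relative to DMSO.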
# [8] = system: zebrafish Peroxisome Proliferator-activated Receptor gamma (PPARg), gene 557037; assay: ATG_zfPPARg_XSP1: Attagene TRANS-FACTORIAL Multi-Species (XSP1) HepG2 Assay for zebrafish Peroxisome Proliferator-activated Receptor gamma (PPARg) (AID 2283801)
# Method in brief: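 Trans-activation readout of chimeric zebrafish PPARg–GAL4 in transiently transfected human HepG2 cells, 24 h chemical exposure (medium includes 3 nM 6-alpha-fluorotestosterone). Reporter transcripts measured by RT-PCR and capillary electrophoresis, fitted as gain over DMSO.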
# [9] = biological target: mouse Peroxisome Proliferator-activated Receptor gamma (PPARg), Pparg (gene 19016) (UniProt P37238); assay: ATG_mPPARg_XSP1: Attagene TRANS-FACTORIAL Multi-Species (XSP1) HepG2 Assay for mouse Peroxisome Proliferator-activated Receptor gamma (PPARg) (AID 2283802)
# Sequence of UniProt P37238 (P37238 whole entry, looked up, the tested form may be a part): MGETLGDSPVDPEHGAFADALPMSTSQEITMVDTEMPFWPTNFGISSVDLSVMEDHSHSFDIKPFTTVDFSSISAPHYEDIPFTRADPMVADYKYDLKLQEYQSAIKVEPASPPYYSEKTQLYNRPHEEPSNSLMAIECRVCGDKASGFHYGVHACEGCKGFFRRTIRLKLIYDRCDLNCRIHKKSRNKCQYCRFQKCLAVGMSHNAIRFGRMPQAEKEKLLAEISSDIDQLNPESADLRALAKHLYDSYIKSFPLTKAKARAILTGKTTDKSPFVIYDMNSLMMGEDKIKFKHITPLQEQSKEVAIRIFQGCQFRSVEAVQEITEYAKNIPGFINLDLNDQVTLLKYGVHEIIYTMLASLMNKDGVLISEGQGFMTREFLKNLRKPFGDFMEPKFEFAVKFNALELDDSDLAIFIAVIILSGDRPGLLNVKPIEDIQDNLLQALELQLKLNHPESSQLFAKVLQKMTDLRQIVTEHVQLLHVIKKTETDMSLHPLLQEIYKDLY
# Method in brief: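 Readout is reporter mRNA induction, measured by RT-PCR with 6-FAM labelling, HpaI digestion and capillary electrophoresis, 24 h post-dose relative to DMSO. Transient multi-reporter transfection of human HepG2 with mouse PPARg–GAL4 fusion; 3 nM 6-alpha-fluorotestosterone included.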
# [10] = biological target: frog Thyroid hormone Receptor alpha (TRa), thra-a (gene 397942) (UniProt P15204); assay: ATG_frTRa_XSP1: Attagene TRANS-FACTORIAL Multi-Species (XSP1) HepG2 Assay for frog Thyroid hormone Receptor alpha (TRa) (AID 2283804)
# Sequence of UniProt P15204 (P15204 whole entry, looked up, the tested form may be a part): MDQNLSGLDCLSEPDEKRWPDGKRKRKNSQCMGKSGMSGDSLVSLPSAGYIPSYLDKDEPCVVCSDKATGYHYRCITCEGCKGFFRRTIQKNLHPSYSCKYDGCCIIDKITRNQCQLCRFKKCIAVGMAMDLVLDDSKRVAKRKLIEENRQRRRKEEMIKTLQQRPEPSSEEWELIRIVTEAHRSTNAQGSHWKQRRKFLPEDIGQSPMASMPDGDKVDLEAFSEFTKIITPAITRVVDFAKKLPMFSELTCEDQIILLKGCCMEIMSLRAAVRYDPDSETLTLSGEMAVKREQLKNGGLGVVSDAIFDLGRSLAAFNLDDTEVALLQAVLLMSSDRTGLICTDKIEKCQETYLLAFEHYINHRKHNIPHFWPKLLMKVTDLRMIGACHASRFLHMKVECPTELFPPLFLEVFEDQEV
# Method in brief: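 Reporter transcript induction, measured by RT-PCR with 6-FAM labelling and capillary electrophoresis, 24 hr after dosing transiently transfected HepG2 cells expressing a frog TRa-GAL4 fusion; medium contained 3 nM 6-alpha-fluorotestosterone; increase over DMSO scored.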
# [11] = biological target: zebrafish Thyroid Hormone Receptor alpha (TRa), thraa (gene 30670) (UniProt Q98867); assay: ATG_zfTRa_XSP1: Attagene TRANS-FACTORIAL Multi-Species (XSP1) HepG2 Assay for zebrafish Thyroid Hormone Receptor alpha (TRa) (AID 2283807)
# Sequence of UniProt Q98867 (Q98867 whole entry, looked up, the tested form may be a part): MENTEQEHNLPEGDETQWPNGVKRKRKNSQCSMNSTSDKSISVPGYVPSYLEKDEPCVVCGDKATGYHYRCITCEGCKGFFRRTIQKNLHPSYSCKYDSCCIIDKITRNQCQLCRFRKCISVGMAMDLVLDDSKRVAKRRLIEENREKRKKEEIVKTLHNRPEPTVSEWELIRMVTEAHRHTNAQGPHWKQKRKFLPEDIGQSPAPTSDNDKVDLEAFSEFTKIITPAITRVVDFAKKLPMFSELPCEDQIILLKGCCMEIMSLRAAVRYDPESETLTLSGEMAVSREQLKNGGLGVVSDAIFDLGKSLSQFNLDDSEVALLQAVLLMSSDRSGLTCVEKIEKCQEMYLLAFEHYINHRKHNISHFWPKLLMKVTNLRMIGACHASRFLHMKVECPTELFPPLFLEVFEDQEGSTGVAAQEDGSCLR
# Method in brief: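 Reporter transcripts driven by a chimeric zebrafish TRa–Gal4 protein were measured by RT-PCR with fluorescent labelling and capillary electrophoresis. These came from transiently transfected HepG2 cells after 24 h chemical exposure, with 3 nM 6-alpha-fluorotestosterone added; baseline was DMSO.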
# [12] = ATG_XTT_Cytotoxicity_XSP1: Cytotoxicity Assessment in the Attagene TRANS-FACTORIAL Multi-Species (XSP1) HepG2 Assay (AID 2283810)
# Method in brief: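 XTT viability readout taken at 24 hours post-dosing in HepG2 liver cells co-treated with 3 nM 6-alpha-fluorotestosterone. Signal loss relative to DMSO controls reflects cytotoxicity.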
smiles,measurement,setting,value
C=C(C)CN(CC)c1c([N+](=O)[O-])cc(C(F)(F)F)cc1[N+](=O)[O-],outcome,[1],inactive
same,AC50,[2],inconclusive: 100 µM
same,AC50,[3],inconclusive: 8.15 µM and inconclusive: 5.4 µM
COP(=S)(OC)SCn1nnc2ccccc2c1=O,AC50,[1],inconclusive: 100 µM
same,AC50,[3],inconclusive: 100 µM and inconclusive: 83.4 µM
Clc1ccc(C2(Cn3cncn3)CC(Br)CO2)c(Cl)c1 (stereo not drawn),outcome,[1],inactive
same,AC50,[3],inconclusive: 100 µM and inconclusive: 39.7 µM
Oc1c(I)cc(I)cc1I,AC50,[1],inconclusive: 100 µM
same,AC50,[2],inconclusive: 24.9 µM
same,AC50,[3],inconclusive: 26.5 µM and inconclusive: 47.5 µM
O=S(=O)(c1ccc(Cl)cc1)c1ccc(Cl)cc1,AC50,[2],inconclusive: 183 µM
same,AC50,[3],inconclusive: 24.4 µM and inconclusive: 27 µM
O=S(=O)(c1ccc(O)cc1)c1ccc(O)cc1,AC50,[1],active: 1.66 µM and active: 1.76 µM
same,AC50,[2],inconclusive: 24.2 µM
same,AC50,[3],active: 27 µM
same,outcome,[3],inactive
CCC(C)c1ccc(O)cc1 (stereo not drawn),outcome,[2],inactive
same,AC50,[3],inconclusive: 100 µM and inconclusive: 24.6 µM
Cc1cc(-c2ccc(N)c(C)c2)ccc1N,AC50,[4],inconclusive: 100 µM
same,outcome,[2],inactive
same,AC50,[3],inconclusive: 6.73 µM and inconclusive: 33.5 µM and inconclusive: 10.3 µM
[Cl][Sn]([c]1ccccc1)([c]1ccccc1)[c]1ccccc1,outcome,[4],inactive
same,AC50,[1],inconclusive: 0.925 µM
same,AC50,[2],inconclusive: 0.215 µM
same,AC50,[3],inconclusive: 0.236 µM
same,AC50,[5],inconclusive: 0.501 µM
C[C@]12CC[C@H](O)CC1=CC[C@@H]1[C@@H]2CC[C@]2(C)C(=O)CC[C@@H]12,outcome,[2],inactive
same,AC50,[3],inconclusive: 3.37 µM and inconclusive: 2.21 µM
COCCl,AC50,[4],inconclusive: 35 µM
same,AC50,[1],inconclusive: 35 µM
same,AC50,[2],inconclusive: 8.45 µM
same,AC50,[3],inconclusive: 59.2 µM
same,outcome,[3],inactive
same,AC50,[5],inconclusive: 35 µM
CCCCc1ccc(O)cc1,AC50,[2],inconclusive: 9.11 µM
same,AC50,[3],inconclusive: 16.2 µM and inconclusive: 16.3 µM
C[C@H]1CCCC(=O)CCC/C=C/c2cc(O)cc(O)c2C(=O)O1,AC50,[2],inconclusive: 0.1 µM
same,AC50,[3],inconclusive: 47.4 nM and inconclusive: 166 nM
CCC(CC)Nc1c([N+](=O)[O-])cc(C)c(C)c1[N+](=O)[O-],AC50,[1],inconclusive: 100 µM
same,AC50,[2],inconclusive: 100 µM
same,AC50,[3],inconclusive: 10.6 µM and inconclusive: 3.57 µM
same,AC50,[5],active: 7.37 µM
COP(=S)(OC)Oc1ccc([N+](=O)[O-])cc1,AC50,[4],inconclusive: 0.0073 µM
same,outcome,[2],inactive
same,AC50,[3],inconclusive: 125 nM and inconclusive: 73.9 µM
CC(C)(C)c1ccc(O)cc1,AC50,[2],inconclusive: 24 µM
same,AC50,[3],inconclusive: 5.41 µM and inconclusive: 69.3 µM
same,AC50,[5],active: 170 µM and active: 51.1 µM
O=[N+]([O-])c1ccc(Oc2ccc(Cl)cc2Cl)cc1,outcome,[4],inactive
same,outcome,[1],inactive
same,AC50,[2],inconclusive: 181 µM
same,AC50,[3],inconclusive: 4.03 µM and inconclusive: 2.4 µM
same,AC50,[5],inconclusive: 0.158 µM
CC(=O)C=C(C)C,AC50,[2],inconclusive: 100 µM
same,AC50,[3],inconclusive: 100 µM
same,AC50,[5],inconclusive: 100 µM
CC(O)(CS(=O)(=O)c1ccc(F)cc1)C(=O)Nc1ccc(C#N)c(C(F)(F)F)c1 (stereo not drawn),AC50,[1],inconclusive: 0.0823 µM
same,AC50,[2],inconclusive: 100 µM
same,AC50,[3],inconclusive: 527 nM and inconclusive: 237 nM
CC(C)(c1ccccc1)c1ccc(O)cc1,AC50,[6],inconclusive: 10 µM
same,AC50,[7],inconclusive: 10 µM
same,outcome,[8],inactive
same,outcome,[9],inactive
same,AC50,[10],inconclusive: 10 µM
same,outcome,[11],inactive
same,outcome,[12],inactive
same,AC50,[2],inconclusive: 0.755 µM
same,AC50,[3],inconclusive: 0.879 µM
